This passage reports cytotoxicity call and growth inhibition call results from the antibiotic and cytotoxicity screens of Wong et al. (2023).

The other results are listed elsewhere or left out.

In the first assay the test system is HepG2. In words: cytotoxicity call (relative viability < 0.9). As to conditions: 10 µM.
In the case of `COc1ccc(CC[C@@H](OC(=O)[C@H]2CCCCN2C(=O)Cc2ccccc2)c2cccc(OCC(=O)O)c2)cc1OC`, the cytotoxicity call is “active”.

Turning to `COc1ccc(S(=O)(=O)Nc2ccc3c(c2)C(=O)N([C@@H](C)CO)C[C@H](C)[C@@H](CN(C)Cc2ccccc2)OCCCC[C@H](C)O3)cc1`, the cytotoxicity call is “inactive”. The same measure, in the same setting: then `C[C@H]1CN([C@@H](C)CO)C(=O)Cc2cc(NC(=O)C3CC3)ccc2O[C@@H]1CN(C)S(=O)(=O)c1cccs1`, with “inactive”.

The test system of the next assay is S. aureus RN4220. In words: growth inhibition call (relative growth <= 0.2). Conditions: 50 µM.
Regarding `O=C(C[C@H]1CC[C@H]2[C@@H](COC[C@@H](O)CN2S(=O)(=O)c2ccc(Cl)cc2)O1)NCCN1CCCC1`, the growth inhibition call was “inactive”. Same read-out and setting: then `C[C@@H]1CN([C@@H](C)CO)C(=O)c2cc(NC(=O)CCCN(C)C)ccc2O[C@@H]1CN(C)S(=O)(=O)c1ccccc1`, with “inactive”.

As for `C[C@H](CO)N1C[C@H](C)[C@@H](CN(C)C(=O)Nc2cccc3ccccc23)Oc2ccc(NC(=O)Cc3ccccc3)cc2CC1=O`, the growth inhibition call was “inactive”. On the same count and under the same terms, under `O=c1ccc(=O)n(CNc2nccs2)[nH]1` stands “inactive”; under `CC(=O)OCC(=O)C12N=C(C)OC1CC1C3CCC4=CC(=O)C=CC4(C)C3C(O)CC12C` (stereo not drawn), “inactive”.

On to `O=C(Nc1cccc2cccnc12)[C@@H]1[C@H](c2cccc(Br)c2)CC(=O)N1C(=O)OCc1ccccc1`, for which the growth inhibition call is “inactive”. Still for that read-out and setting: then `C[C@H](CO)N1C[C@H](C)[C@@H](CN(C)Cc2ccc(Cl)c(Cl)c2)Oc2c(NS(=O)(=O)c3ccccc3)cccc2C1=O`, with “inactive”. `C[C@H]1CCCCO[C@H](CN(C)C(=O)Nc2ccc(C(F)(F)F)cc2)[C@@H](C)CN([C@@H](C)CO)C(=O)c2cc(NS(=O)(=O)c3ccc(F)cc3)ccc2O1`: the growth inhibition call was “inactive”. `O=C(C[C@H]1CC[C@H]2[C@@H](COC[C@@H](O)CN2S(=O)(=O)c2cccc(F)c2)O1)NCc1ccncn1`: the growth inhibition call is “inactive”. Same read-out and setting: under `Oc1ccc2ccccc2c1` stands “inactive”. The same measure, in the same setting: under `C[C@@H]1CN([C@@H](C)CO)C(=O)c2cc(C#CCN(C)C)cnc2O[C@@H]1CN(C)C(=O)Nc1ccccc1F` stands “inactive”; under `COc1cccc(NC(=O)N(C)C[C@@H]2OCc3ccccc3-c3c(n(C)c4ccccc34)C(=O)N([C@H](C)CO)C[C@@H]2C)c1`, “inactive”. Still for that read-out and setting: under `C[C@H]1CN([C@@H](C)CO)C(=O)c2cccc(NS(C)(=O)=O)c2O[C@H]1CN(C)Cc1ccc(C(=O)Nc2ccccc2N)cc1` stands “inactive”. `CC(C)NC(=O)c1cccc2cccc(Sc3ccccc3)c12`: the growth inhibition call was “inactive”.

As to `COc1ccccc1C(=O)N1CCNCC1`, the growth inhibition call is “inactive”. On the same count and under the same terms, then `C[C@@H]1CN([C@@H](C)CO)C(=O)c2cccc(NC(=O)Nc3ccc(F)cc3)c2O[C@H]1CN(C)Cc1ccc(Oc2ccccc2)cc1`, with “inactive”; and `Cc1csc(S(=O)(=O)N(CC(C)C)c2cc3c(cc2OCc2ccc(C(=O)O)cc2)CCC3)n1`, with “inactive”.

Turning to `C[C@@H]1CCCCO[C@H](CN(C)Cc2ccccc2)[C@H](C)CN([C@H](C)CO)C(=O)c2cc(NC(=O)c3ccccc3)ccc2O1`, the growth inhibition call was “inactive”. As to `C[C@@H]1CCCCO[C@@H](CN(C)Cc2ccc3c(c2)OCO3)[C@@H](C)CN([C@@H](C)CO)C(=O)c2cc(NS(=O)(=O)c3ccc(Cl)cc3)ccc2O1`, the growth inhibition call is “inactive”. On the same count and under the same terms, then `C[C@@H]1CN([C@H](C)CO)C(=O)Cc2cc(NS(=O)(=O)c3cn(C)cn3)ccc2O[C@H]1CN(C)CC1CCCCC1`, with “inactive”. On the same count and under the same terms, then `COc1ccc(NC(=O)N(C)C[C@H]2Oc3ccc(NC(=O)C4CC4)cc3CC(=O)N([C@@H](C)CO)C[C@@H]2C)cc1`, with “inactive”. With `CO[C@H]1CN(C)C(=O)c2cc(NC(=O)Nc3cccc(F)c3)ccc2OC[C@@H](C)N(C(=O)Nc2c(C)noc2C)C[C@@H]1C`, the growth inhibition call is “inactive”. The same measure, in the same setting: under `CCCN(C)C[C@H]1OCCCC[C@@H](C)Oc2ccc(NS(=O)(=O)c3ccc(Cl)cc3)cc2C(=O)N([C@@H](C)CO)C[C@H]1C` stands “inactive”; under `COC(=O)[C@H]1CCC(=O)[C@H](C(=O)OC)C1`, “inactive”. For the compound `COc1ccc(NC(=O)Nc2ccc3c(c2)[C@@H]2C[C@@H](CC(=O)NCc4ccncc4)O[C@H](CO)[C@@H]2O3)cc1`, the growth inhibition call was “inactive”. Same read-out and setting: then `C[C@H]1CN([C@@H](C)CO)C(=O)c2cccc(NC(=O)c3cnccn3)c2O[C@@H]1CN(C)S(=O)(=O)c1cn(C)cn1`, with “inactive”; and `C[C@@H]1CCCCO[C@@H](CN(C)C(=O)Nc2ccc(F)cc2)[C@H](C)CN([C@H](C)CO)C(=O)c2cc(NC(=O)Nc3cccc4ccccc34)ccc2O1`, with “inactive”. Same read-out and setting: under `COCCNC(=O)C[C@H]1C[C@H]2c3cc(NC(=O)COC)ccc3O[C@H]2[C@@H](CO)O1` stands “inactive”. Same read-out and setting: then `C[C@@H]1CN([C@@H](C)CO)C(=O)c2cc(NS(=O)(=O)c3ccc(Cl)cc3)ccc2O[C@@H](C)CCCCO[C@H]1CN(C)S(=O)(=O)c1ccc(Cl)cc1`, with “inactive”. For `C[C@@H]1CN([C@@H](C)CO)C(=O)c2cc(NC(=O)NC3CCCCC3)ccc2O[C@@H](C)CCCCO[C@H]1CN(C)C(=O)NC1CCCCC1`, the growth inhibition call was “inactive”. On the same count and under the same terms, under `Cc1cc(N)c2ccccc2[n+]1CCCCCCCCCC[n+]1c(C)cc(N)c2ccccc21.[Cl-].[Cl-]` stands “inactive”. On the same count and under the same terms, under `O=C(C[C@@H]1CC[C@H]2[C@@H](COC[C@@H](O)CN2Cc2cc(F)ccc2F)O1)N[C@H]1CCN(Cc2ccccc2)C1` stands “inactive”; under `Cc1ccc(S(=O)(=O)Nc2cccc3c2O[C@@H](CN(C)S(=O)(=O)c2ccccc2)[C@H](C)CN([C@H](C)CO)C3=O)cc1`, “inactive”. On the same count and under the same terms, then `COc1ccc(S(=O)(=O)N(C)C[C@H]2Oc3ccc(NC(=O)C4CC4)cc3C(=O)N([C@@H](C)CO)C[C@@H]2C)cc1`, with “inactive”; and `COc1ccccc1-c1ccc2c(c1)O[C@H](CN(C)C(=O)c1cccnc1)[C@H](C)CN([C@@H](C)CO)S2(=O)=O`, with “inactive”. Regarding `COc1ccc(NC(=O)Nc2ccc3c(c2)C(=O)N([C@H](C)CO)C[C@H](C)[C@H](CN(C)S(=O)(=O)c2ccc(C)cc2)OCCCC[C@@H](C)O3)cc1`, the growth inhibition call is “inactive”. On to `CC(C)(C)[S@@](=O)N1Cc2cc(C(=O)NCCN3CCCCC3)nc(-c3cccc(-c4cccc(C#N)c4)c3)c2[C@H]1CCO`, for which the growth inhibition call was “inactive”.

Regarding `COc1ccc(CC[C@@H](OC(=O)[C@H]2CCCCN2C(=O)Cc2ccccc2)c2cccc(OCC(=O)O)c2)cc1OC`, the growth inhibition call is “inactive”. The same measure, in the same setting: under `COc1ccc(S(=O)(=O)Nc2ccc3c(c2)C(=O)N([C@@H](C)CO)C[C@H](C)[C@@H](CN(C)Cc2ccccc2)OCCCC[C@H](C)O3)cc1` stands “inactive”. Regarding `C[C@H]1CN([C@@H](C)CO)C(=O)Cc2cc(NC(=O)C3CC3)ccc2O[C@@H]1CN(C)S(=O)(=O)c1cccs1`, the growth inhibition call is “inactive”.
